Laboratory results taken from PMC4336329 (PLoS ONE, 2015).
In all, about 310,000 compounds went through this assay and about 2,200 (0.71%) showed an effect of 50% or more. Effects have a minus sign here. This is one part of the list.

target: human ether-à-go-go-related gene (hERG) potassium channel (human, UniProt Q12809); test: primary screen, population patch clamp on CHO cells stably expressing hERG
Sequence (Q12809 whole entry, looked up): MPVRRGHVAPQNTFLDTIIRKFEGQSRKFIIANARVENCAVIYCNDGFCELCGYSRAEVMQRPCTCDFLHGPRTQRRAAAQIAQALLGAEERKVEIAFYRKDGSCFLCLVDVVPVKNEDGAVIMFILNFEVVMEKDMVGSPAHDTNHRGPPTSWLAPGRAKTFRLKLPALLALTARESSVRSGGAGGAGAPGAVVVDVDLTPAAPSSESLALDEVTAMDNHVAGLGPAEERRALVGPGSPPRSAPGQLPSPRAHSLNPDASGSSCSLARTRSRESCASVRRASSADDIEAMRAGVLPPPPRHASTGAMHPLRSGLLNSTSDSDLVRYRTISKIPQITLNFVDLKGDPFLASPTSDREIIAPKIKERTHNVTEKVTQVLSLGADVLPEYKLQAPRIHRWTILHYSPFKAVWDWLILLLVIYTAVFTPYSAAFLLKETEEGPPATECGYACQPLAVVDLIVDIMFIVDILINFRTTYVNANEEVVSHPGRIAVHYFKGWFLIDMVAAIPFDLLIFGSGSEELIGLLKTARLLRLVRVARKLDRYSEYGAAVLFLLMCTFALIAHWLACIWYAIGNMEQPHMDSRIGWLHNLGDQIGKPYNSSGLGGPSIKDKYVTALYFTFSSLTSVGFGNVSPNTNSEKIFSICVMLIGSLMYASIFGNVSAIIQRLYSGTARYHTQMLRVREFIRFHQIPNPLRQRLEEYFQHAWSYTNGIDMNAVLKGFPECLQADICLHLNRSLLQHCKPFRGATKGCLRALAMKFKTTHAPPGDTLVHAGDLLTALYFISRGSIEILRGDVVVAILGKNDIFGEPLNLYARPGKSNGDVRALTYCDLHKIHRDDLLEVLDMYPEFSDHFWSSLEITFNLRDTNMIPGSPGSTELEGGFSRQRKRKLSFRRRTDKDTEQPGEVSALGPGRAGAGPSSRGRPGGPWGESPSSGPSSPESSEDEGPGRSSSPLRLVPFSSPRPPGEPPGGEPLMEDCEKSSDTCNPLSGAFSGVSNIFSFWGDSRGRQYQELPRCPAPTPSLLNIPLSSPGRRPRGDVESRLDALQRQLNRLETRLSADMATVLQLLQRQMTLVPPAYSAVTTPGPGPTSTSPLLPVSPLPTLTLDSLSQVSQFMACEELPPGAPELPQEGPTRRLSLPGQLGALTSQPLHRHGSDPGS

In order of rising “hERG current change (%, negative = inhibition) at 1uM” value:
1. COCCCNCCCCOc1ccc(Br)cc1C.O=C(O)C(=O)O  -24%
2. CCN1CCN(c2ccc(S(=O)(=O)N3CCCCC3)cc2NC(=O)Cc2ccc(OC)cc2)CC1  -13.7%
3. COCCCn1c(Cc2csc(Nc3cccc(Cl)c3)n2)nnc1SCC(=O)OC  -8.9%
4. CC1CCCN(S(=O)(=O)c2ccc(CN3C(=O)c4cccnc4C3=O)cc2)C1 (stereo not drawn)  -3.88%
5. CN1[C@@H]2CC[C@H]1CC(OC1c3ccccc3CCc3ccccc31)C2.O=C(O)CC(O)(CC(=O)O)C(=O)O (stereo partly drawn)  -2.76%
6. Cc1ccc(-c2csc(NC(=O)C3CC(=O)N(Cc4ccco4)C3)n2)cc1 (stereo not drawn)  -2.47%
7. CCOC(=O)c1c(NC(=O)COC(=O)CCCOc2ccc(OC)cc2)sc(C(=O)NC)c1C  -2.22%
8. Cc1ccc(-c2nnc(SCC(=O)Nc3ccc4c(c3)OCCO4)n2N)cc1  -1.89%
9. O=C(OCC(=O)N1CCOCC1)c1ccccc1Cc1ccccc1  -0.874%
10. Cc1cc(C)cc(OCC(=O)N(Cc2cccs2)C2CCS(=O)(=O)C2)c1 (stereo not drawn)  -0.223%
11. COc1ccc(OCCCC(=O)N(C)CC(=O)Nc2ccccc2Cl)cc1  0.818%
12. CCN(C(=O)CSc1nc2ccccc2n1CCc1ccccc1)C1CCS(=O)(=O)C1 (stereo not drawn)  1.87%
13. COc1cc(NC(=O)CN2C(=O)NC(C)(c3ccccc3)C2=O)c(C)cc1[N+](=O)[O-] (stereo not drawn)  1.93%
14. Cc1ccccc1-c1noc(CNC(=O)COc2ccccc2)n1  2.09%
15. NC1=NC(=Nc2ccc(Cl)cc2)c2ccccc21  2.09%
16. O=c1[nH]n(-c2ccc([N+](=O)[O-])cc2)c(=O)c2ccccc12  3.44%
17. O=C(c1ccccc1NS(=O)(=O)c1ccc(F)cc1)N1CCOCC1  4.8%
18. COC(=O)c1ccc(N2C(=O)CC(N3CCN(c4ccccc4)CC3)C2=O)cc1 (stereo not drawn)  5.4%
19. O=C(/C=C/c1ccc([N+](=O)[O-])cc1)/C=C/c1ccco1  5.91%
20. O=C(OCC(=O)N1CCN(c2ccccc2)CC1)c1cccs1  5.96%
21. O=C(C#Cc1ccccc1)NCc1ccccc1F  6.82%
22. CCOc1ccc(/C=C2/SC(=O)NC2=S)cc1  7.86%
23. O=C(COc1ccccc1C(=O)O)NC1CCCc2ccccc21 (stereo not drawn)  8.24%
24. O=c1c2[nH]c3ccccc3c2ncn1Cc1ccccn1  8.6%
25. Cc1ccc2[nH]c(O)c(N=NC(=O)c3ccc(NS(=O)(=O)c4cccs4)cc3)c2c1  8.69%
26. C/C(=N\NS(=O)(=O)c1ccccc1)c1cc(Cl)cc(Cl)c1O  9.56%
27. O=c1sc2ccccc2n1CCCOc1ccccc1  9.71%
28. O=C(Cn1cnc2c(nnn2Cc2ccc(F)cc2)c1=O)NC1CCCC1  9.74%
29. O=C(Nc1ccc(S(=O)(=O)N2CCCC2)cc1)c1ccc2c(=O)n3c(nc2c1)CCCCC3  10.1%
30. Cc1ccccc1NC1=C(C(=O)c2ccccc2)N(C)S(=O)(=O)c2ccccc21  10.2%
31. CCCCc1nnc2c(N(C)S(=O)(=O)c3ccccc3)nc3ccccc3n12  10.2%
32. Cn1c(SCC(=O)Nc2cccc(Br)c2)nnc1-c1cc2ccccc2o1  10.2%
33. CCCNC(=O)c1c(O)c2cccc3c2n(c1=O)CCC3  10.5%
34. O=C(CCCc1c[nH]c2ccccc12)Nc1ncccc1O  11%
35. Fc1ccc(COc2cccc3cccnc23)cc1  11%
36. CC(=O)N1N=C(c2ccc(Cl)cc2)CC1c1ccc([N+](=O)[O-])cc1 (stereo not drawn)  11%
37. CCOC(=O)c1cc2ccc3ccccc3c2oc1=O  11.2%
38. CCOC(=O)CNC(=O)COc1coc(CN2CCN(c3ccccc3)CC2)cc1=O  11.5%
39. COCCNC(=O)C(=O)Nc1cccc(Br)c1  11.6%
40. Cn1c(=O)c(NC(=O)c2ccccc2)c2n(c1=S)CCCCC2  11.7%
41. O=C(c1ccc(S(=O)(=O)N2CCCC2)cc1)N1CCC(CN2C(=O)c3cccc4cccc(c34)C2=O)CC1  11.9%
42. COCCn1c(SCC(=O)c2ccccc2)nc2c(c1=O)SC(C)C2 (stereo not drawn)  11.9%
43. CN=c1scc(-c2ccccc2F)n1/N=C/c1ccc[nH]1  12.7%
44. Cc1ccc(CN(c2ccc(C(=O)N3CCCC3)cc2)S(C)(=O)=O)cc1  12.8%
45. NS(=O)(=O)c1cccc(NC(=O)c2cccc(Oc3ccccc3)c2)c1  12.8%
46. C/C(=N\N=C(N)N)c1ccccc1  13.3%
47. Cc1ccc(OC(=O)c2ccccc2C(=O)OCC(F)(F)C(F)F)cc1  14%
48. COc1ccc(-c2cnn3c4c(c(C)nc23)CCN4C(C)C)cc1OC  14.3%
49. Cc1ccc(NC(=O)C/C(N)=N/OC(=O)Nc2cccc(Cl)c2)cc1  15.2%
50. COC(=O)c1cn(Cc2cc(OC)ccc2OC)cc(F)c1=O  15.5%
51. Brc1cnc2nc[nH]c2c1  15.8%
52. Cc1ccc2[nH]c(C)c(CCNCc3ccco3)c2c1.Cl  16%
53. CC(C)Cc1ccc(C(C)C(=O)Nc2cccnc2)cc1 (stereo not drawn)  16.1%
54. NC(=O)c1cc([N+](=O)[O-])ccc1NCc1ccc(N)cc1  16.5%
55. Cc1nn(-c2cc(N3CCCCCC3)ccc2[N+](=O)[O-])c(=O)c2ccccc12  17.3%
56. COc1ccc(NC(=O)CSc2nc3[nH]ncc3c(=O)n2-c2ccccc2OC)cc1OC  18%
57. Nc1c(C(=O)N2CCOCC2)oc2ccccc12  25.2%
